# Reference: PubChem BioAssay (NCI)
# A structure can be active in one record and inactive in another.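 Method: cells in 96-well plates; compound added at one concentration; 48 h incubation; percent growth measured; values under 10 scored active.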 Certain results were filed several times, with different values. They are shown here; other results are not. The source may hold further records. The screen tested this drug many times, at its own concentration, as given; one value stands for one run. Counts like (3×) count equal records among those shown.
# System: NCI/ADR-RES ovarian
# Test: NCI-60 one-dose screen, 48 h (100 = growth as untreated, 0 = no growth, -100 = all killed)
structure (smiles),measurement,setting,value
COc1cccc2c1C(=O)c1c(O)c3c(c(O)c1C2=O)C[C@@](O)(C(=O)CO)C[C@@H]3OC1CC(N)C(O)C(C)O1 (stereo not given in full),growth,"0.25 µM, runs of 2013","inactive: 112 (2×), 103 (8×), 108 (4×), 114 (4×), 109 (5×), 115 (2×), 104 (7×), 110 (5×), 98.6, 111 (5×), 101 (6×), 107 (2×), 98, 106, 100 (6×), 96.6, 98.7, 105 (4×), 98.8 (2×), 99, 96.2%"
same,growth,"0.25 µM, runs of 2014","inactive: 106 (4×), 95, 101 (6×), 98.2, 97, 103 (5×), 100 (3×), 94.4 (3×), 92.4, 99.1, 104 (7×), 98.6, 99.7 (2×), 92.9, 94.5 (2×), 105 (2×), 107 (2×), 109, 96.2, 91.9, 93.9, 88.2, 89.4, 96.9 (2×), 97.3 (3×), 98.1, 92.1, 99.2, 98.9, 97.1, 96.5, 95.2 (2×), 93.2 (2×), 97.6, 93.3, 90.7, 87.6, 87.5, 86.5%"
same,growth,"0.25 µM, runs of 2015","inactive: 96.5 (3×), 101 (3×), 99.9 (2×), 100, 97.6 (2×), 98.9 (2×), 97.8, 99.2 (2×), 96.9, 97.4 (2×), 94.4 (2×), 89.3, 88.8, 99, 92, 98.2, 97.3 (2×), 97.1 (3×), 95.8 (2×), 94.3 (2×), 94 (2×), 98.6, 96.3, 99.3, 95.2, 90.4, 98.3 (2×), 91.2, 96.4 (2×), 86.7, 104, 89.9, 88.6, 85.8, 90.7, 94.7, 95.4 (2×), 91.3, 92.3, 98, 98.4, 90.5, 92.2, 92.6, 90, 91.8, 96.7, 96.2%"
same,growth,"0.25 µM, runs of 2016","inactive: 91.9, 95.6 (3×), 96.2 (2×), 98.6, 91.2, 95.8, 94.5 (2×), 92.8 (3×), 95.7, 96.6, 93.1 (2×), 96.3 (2×), 89.7, 94.3 (2×), 87.1, 92, 91.1, 92.3, 92.1, 97.4 (2×), 94.7, 97, 96, 99.3 (2×), 98 (2×), 99.6, 98.8 (3×), 98.7, 96.7 (2×), 97.8, 100 (4×), 93.9, 99 (2×), 98.2 (2×), 99.9 (2×), 101 (4×), 94, 92.6, 97.7, 95.4, 94.6, 96.5 (2×), 95, 99.5, 98.9, 97.2, 99.7%"
same,growth,"0.25 µM, runs of 2017","inactive: 98.1 (2×), 99.6, 97.6 (2×), 100 (2×), 95.8 (2×), 97.1, 95.4, 97.3 (2×), 96.6 (2×), 92.8, 91.2, 97.4 (2×), 92, 96, 96.2 (2×), 92.2 (2×), 93.2, 98.7 (2×), 97.2, 97.7, 99.9, 95 (2×), 95.2 (2×), 99.2, 105, 99.1, 93.4 (4×), 99, 94.4, 94.6, 99.5, 98.3, 95.7 (2×), 95.6, 92.3, 92.1 (2×), 91, 92.6 (2×), 94.5, 90.7, 88.9, 93.9, 103% (2×)"
same,growth,"0.25 µM, runs of 2018","inactive: 96.4, 92.9 (2×), 94.4, 96.7 (3×), 97, 92, 96.6 (2×), 94.7, 99.6, 97.2, 103 (3×), 98.2 (2×), 101 (7×), 99.9 (2×), 100 (2×), 91.6, 99.1, 98.7 (2×), 108, 97.4 (2×), 97.8, 99.7, 98.8, 97.6, 98.6, 96.9, 93.9, 98.4, 104, 94.6, 98.3, 85.7%"
same,growth,"0.25 µM, runs of 2019","inactive: 90.5, 97.6, 92.1 (2×), 91.6 (3×), 90, 91 (2×), 85, 87.1, 92.8, 91.2, 97.2, 89.4, 92.3, 91.3 (2×), 93.9, 98.3, 99.7, 89.1, 89.7, 83.7, 93.4, 98.6, 94.3 (2×), 94.6 (2×), 98.8, 93.2, 95.8, 82.5, 89.9%"
same,growth,"0.25 µM, runs of 2020","inactive: 91.8, 85.7, 97.1, 94.3, 95.7, 93.9, 97.6, 99, 98.8, 91, 88.3, 93.2, 87.7, 89.7, 92.1 (2×), 88, 89.6 (2×), 92.6, 88.1, 92.8, 95, 94.7%"
same,growth,"0.25 µM, runs of 2021","inactive: 98.7, 99, 97 (2×), 99.6, 94.6, 97.7 (2×), 98.4 (2×), 92.4, 92.6, 91.9, 98.9, 101 (3×), 97.1, 97.2 (2×), 89.4, 88.8, 93.4 (2×), 94.5, 96.9, 95.6, 98.6 (2×), 94.3, 96.5, 92.8, 99.7, 99.3, 90.9, 89.7, 97.4, 88.5, 84, 85, 88.3, 95, 92%"
same,growth,"0.25 µM, runs of 2022","inactive: 86.7, 84.6, 87.2 (2×), 82.7, 95, 89.5, 98.9 (2×), 97.1, 101 (2×), 88.1, 95.6, 98.8, 97.8, 97.7, 92.3, 94, 85.2, 99.6, 89.4, 104, 81.7, 81.1, 92.2, 85.7%"
same,growth,"25 µM, runs of 1993","inactive: 62 (2×), 59.4, 48.9, 63.5, 51.8, 112, 44.9, 50.7, 66, 45.6, 59, 65.6, 44.8, 53.8, 55.1 (2×), 54, 45.8, 68.1, 69.8, 65.9, 34.2, 48.8, 50.4 (2×), 68.5, 57.3, 35.5, 42, 66.5, 57.6, 55.7, 68.9, 56, 57.5, 53.4, 52.2, 44, 54.7 (2×), 51.2, 65.1, 47.5, 70.2, 47.3%"
same,growth,"25 µM, runs of 1994","inactive: 59.1, 46.7, 55.2, 40.2, 36.6, 48.9, 61.5, 44, 29.6, 46.4 (2×), 55.4, 33.9, 36.7, 76.7, 47.3, 51.5, 37.6, 51.1, 38.5, 60.3, 50.5, 64.4, 58.7, 52.6, 57.3, 44.2, 70.1, 50, 34%"
same,growth,"25 µM, runs of 1995","inactive: 33.4, 36.3, 51.9, 57.8, 44.8, 60.4, 68.7, 59.4, 46.9 (2×), 36.6, 40.9, 47.9, 44.3, 34.2, 36.9, 47.6, 35.9, 48.2, 29.8, 56.9, 60.1, 50.1, 33.1, 41.3, 44.2, 45.4, 39.9, 47.3, 43.3, 46.5, 20.2, 48.8, 57, 66.8, 61.9, 63.8% and active: -23.6%, -10.1%"
same,growth,"25 µM, runs of 1996","inactive: 71.7, 56.7 (2×), 42.7, 54.5, 61.1, 44.8, 53.1, 50.6 (2×), 40, 46.5, 43.4, 39.2, 43.3, 76.7, 47, 70.6, 58.8, 53.5, 51.1 (2×), 57.1, 41.7, 64.6, 26.7, 51.7, 52.6, 28.4, 41.8, 36.3, 28.1 (2×), 32.8, 29.8, 23.6, 21.8, 38.7, 10.8, 44 (2×), 27.8, 33.9, 47.1, 30.8, 40.9 (2×), 24.3, 53, 36.7, 27.2, 67.7, 30.6% and active: 1.22%, -2.15%"
same,growth,"25 µM, runs of 1997","inactive: 48.2, 44.9, 34.9, 47.1, 23.5, 22.4, 28.8, 14, 18.3, 52.3, 33.9, 14.7, 25.8, 38, 19.1, 23.1, 35.9, 37.6, 16.5, 18.4, 38.6, 47.3, 45.5, 68.4, 40.9, 64.5, 39.8, 50.7, 54.7, 52.2, 60, 59, 54.9, 82.3, 50, 45, 42.6, 57.9, 49.9% and active: 0.579, -16.2, 6.75, 0.978%"
